Test results published in PubChem BioAssay (NCI).
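All cell lines were grown in 96-well plates and treated with compound for 48 hours. GI50: concentration for 50% inhibition of growth. TGI marks complete inhibition of growth.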

Test system: NCI-H322M lung
Assay: growth of human tumour cells (NCI), 48 h

## Cc1ccc(/C=C/C(=O)c2ccc(S(=O)(=O)NCCNc3nc(Nc4ccc(F)cc4)nc(N(C)C)n3)cc2)cc1
  GI50: 11.8 µM
  TGI: 27.1 µM

## O=C(c1ccc(Cl)cc1)C1[C@H](c2ccccc2Cl)[C@@H](c2ccccc2)NC12C(=O)Nc1ccccc12 (stereo partly specified)
  GI50: 25.5 µM
  TGI: > 100 µM

## COc1ccc(NC(=O)Nc2nc3ccc([N+](=O)[O-])cc3s2)cc1
  GI50: 2.81 µM
  TGI: 8.21 µM
